# In the supplement of paper PMC4604168 (melanoma cell lines):
# This is one part of the list. Most values come without repeats; read them as rough.
# Columns and labels:
# Assay in all cases: cell count relative to DMSO control; melanoma cells; higher = more viable cells
# Conditions in all cases: library dose: standard library concentration; 72 h
# [1] = system: G361
# [2] = system: IPC-298
# [3] = system: IST-MEL1
# [4] = system: LB2518-MEL
# [5] = system: LOXIMVI
# [6] = system: MEL-HO
# [7] = system: MZ2-MEL
# [8] = system: MeWo
# [9] = system: RPMI7951
# [10] = system: RVH-421
# [11] = system: SkMel28
# [12] = system: SkMel2
# [13] = system: SkMel30
# [14] = system: SkMel5
# [15] = system: UACC257
# [16] = system: UACC62
# [17] = system: WM115
# [18] = system: WM1716
# [19] = system: WM1745
# [20] = system: WM3526
# 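Note: cells treated in 1,536-well plates, then fixed and DAPI-stained, with nuclei counted from automated high-throughput microscope images.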
SMILES,cell count [1] [%],cell count [2] [%],cell count [3] [%],cell count [4] [%],cell count [5] [%],cell count [6] [%],cell count [7] [%],cell count [8] [%],cell count [9] [%],cell count [10] [%],cell count [11] [%],cell count [12] [%],cell count [13] [%],cell count [14] [%],cell count [15] [%],cell count [16] [%],cell count [17] [%],cell count [18] [%],cell count [19] [%],cell count [20] [%]
"Cn1c(Nc2ccc(C(F)(F)F)cc2)nc2cc(Oc3ccnc(-c4ncc(C(F)(F)F)[nH]4)c3)ccc21 + NC(=O)Nc1cc(-c2cccc(F)c2)sc1C(=O)N[C@H]1CCCNC1 [AZD7762] (first compound 0.4 µM, partner dose 0.1 µM)",21.6,49,69.6,27.5,55.9,57.1,71.6,65.5,33.2,76.8,31.3,32.5,55.8,34.5,89.1,41,23.5,60.4,47,40.2
"Cn1c(Nc2ccc(C(F)(F)F)cc2)nc2cc(Oc3ccnc(-c4ncc(C(F)(F)F)[nH]4)c3)ccc21 + C[C@@H]1CCN(C(=O)CC#N)C[C@@H]1N(C)c1ncnc2[nH]ccc12 [CP690550] (first compound 0.4 µM, partner dose 5 µM)",28.8,61.6,87.1,41,65.9,89.6,103,82.3,69.2,47.8,54.6,54.3,85.2,48.4,77.8,41,36,73.5,67.8,46.1
"O=C(CCCCCCC(=O)Nc1ccccc1)NO [vorinostat] + CN(C)S(=O)(=O)c1ccc2c(c1)/C(=C/c1cc3c([nH]1)CCCC3)C(=O)N2 [SU6656] (first compound 0.4 µM, partner dose 2 µM)",60.5,44.5,63,68.1,63.4,64.6,78.9,69.1,48.2,72.5,38.6,58.2,74.9,58.7,67.1,69.5,33.4,36.9,82.5,62.3
"O=C(CCCCCCC(=O)Nc1ccccc1)NO [vorinostat] + N#Cc1c(O)c2c(-c3ccc(-c4ccccc4O)cc3)csc2[nH]c1=O [A769662] (first compound 0.4 µM, partner dose 10 µM)",52.9,76.1,78.7,52.5,97.7,82.5,90.4,99.5,64.8,78.7,29.4,73.1,79.9,74.7,60,96,84.8,102,85,82.8
"Nc1cccc2c1CN(C1CCC(=O)NC1=O)C2=O (stereo not given) [lenalidomide] + Oc1cc(-c2nc(-c3ccccc3)[nH]c2-c2ccncc2)ccc1Cl [L779450] (first compound 5 µM, partner dose 1 µM)",62,85.1,95.8,75.4,87.8,83.3,88.4,95.2,97.6,85,54,23.5,110,73,79.5,65.4,42.3,72.2,53.3,48.8
"C#Cc1cccc(Nc2ncnc3cc(OCCOC)c(OCCOC)cc23)c1 [erlotinib] + O=C(O)c1ccc(-c2c[nH]c3ncc(-c4ccccc4)cc23)cc1C1CCCC1 [GSK650394] (first compound 4 µM, partner dose 0.8 µM)",43.3,72.4,68.4,56.9,67.6,66.2,82.5,63.1,60.7,79.9,44.1,79.5,77.4,54.7,80.1,85.5,66.2,79.2,67.7,64.3
"OCc1c[nH]c2ccccc12 [Indole-3-carbinol] + CC1(C)NC(=O)N(c2ccc([N+](=O)[O-])c(C(F)(F)F)c2)C1=O [nilutamide] (first compound 4 µM, partner dose 5 µM)",97.5,106,91.9,104,79.7,94.4,109,100,133,92.2,110,100,103,107,114,104,115,102,102,103
"Cn1c(Nc2ccc(C(F)(F)F)cc2)nc2cc(Oc3ccnc(-c4ncc(C(F)(F)F)[nH]4)c3)ccc21 + CO[C@@H]1[C@H](N(C)C(=O)c2ccccc2)C[C@H]2O[C@]1(C)n1c3ccccc3c3c4c(c5c6ccccc6n2c5c31)C(=O)NC4 [Midostaurin] (first compound 0.4 µM, partner dose 0.4 µM)",20.1,50,62.6,24.2,29.2,54.4,45.6,55.5,25.6,42.4,38.5,37.7,75.8,34.9,54.2,42.5,26.8,27.1,33.1,45.8
"C#Cc1cccc(Nc2ncnc3cc(OCCOC)c(OCCOC)cc23)c1 [erlotinib] + Oc1cc(-c2nc(-c3ccccc3)[nH]c2-c2ccncc2)ccc1Cl [L779450] (first compound 4 µM, partner dose 1 µM)",64.7,63,80.6,56.8,81.3,72.5,78.5,67.9,64.7,56.5,54.9,15,70.2,39.6,92.5,51.4,49.1,70.7,34.1,46.9
"Nc1cccc2c1CN(C1CCC(=O)NC1=O)C2=O (stereo not given) [lenalidomide] + CCc1ccc(CCOc2ccc(CC3SC(=O)NC3=O)cc2)nc1 [pioglitazone] (first compound 5 µM, partner dose 10 µM)",85.9,94.2,86.3,90.6,95.8,98.8,105,89.5,84.6,103,82.7,86.1,74.1,98.8,112,76.8,77.3,82.8,73.2,87.4
"O=C(CCCCCCC(=O)Nc1ccccc1)NO [vorinostat] + COc1cc2ncnc(Nc3ccc(Oc4ccccc4)cc3)c2cc1OC [SrcI1] (first compound 0.4 µM, partner dose 10 µM)",49.5,74.1,99.1,109,64.1,84.2,59.7,57.7,68.7,110,55,74.2,87.7,55.5,80.5,56.6,69.5,79.2,78.7,62.2
"Cn1c(Nc2ccc(C(F)(F)F)cc2)nc2cc(Oc3ccnc(-c4ncc(C(F)(F)F)[nH]4)c3)ccc21 + Oc1nc(-c2ccc(C(F)(F)F)cc2)nc2c1CSCC2 [XAV939] (first compound 0.4 µM, partner dose 10 µM)",22,50.1,77.1,44,82.8,59.1,70.1,54.8,43.5,43.6,30.1,65.3,74.1,42.5,78.2,42.4,45.6,49.1,43,40.8
"Nc1cccc2c1CN(C1CCC(=O)NC1=O)C2=O (stereo not given) [lenalidomide] + CCN(CC)CCCCNc1ncc2cc(-c3cc(OC)cc(OC)c3)c(NC(=O)NC(C)(C)C)nc2n1 [PD173074] (first compound 5 µM, partner dose 0.5 µM)",98.2,110,106,82.3,89.3,103,107,107,103,82.8,119,104,115,109,105,112,106,99.9,98,97.6
"OCc1c[nH]c2ccccc12 [Indole-3-carbinol] + Cn1cncc1[C@@](N)(c1ccc(Cl)cc1)c1ccc2c(c1)c(-c1cccc(Cl)c1)cc(=O)n2C [tipifarnib] (first compound 4 µM, partner dose 0.05 µM)",80,94,88.5,77.4,81.7,102,98.2,87.9,73.8,76.4,59.6,55.4,93.2,59.8,103,69.5,58.4,59.4,120,70.9
"Clc1ccc(Nc2nnc(Cc3ccncc3)c3ccccc23)cc1 [vatalanib] + Cn1cncc1[C@@](N)(c1ccc(Cl)cc1)c1ccc2c(c1)c(-c1cccc(Cl)c1)cc(=O)n2C [tipifarnib] (first compound 10 µM, partner dose 0.05 µM)",55.5,62.7,59.3,67.2,71,61.7,80.9,67.1,53.4,62.7,59.5,58.2,107,49.1,65.9,62.8,50.1,49.1,44,64.7
"COCC[n+]1c2c(n(Cc3cnccn3)c1C)C(=O)c1ccccc1C2=O + CC1(C)NC(=O)N(c2ccc([N+](=O)[O-])c(C(F)(F)F)c2)C1=O [nilutamide] (first compound 0.002 µM, partner dose 5 µM)",84.7,68.8,51.5,49.5,74.7,103,42.3,64.5,39.9,107,39.9,49.7,87,49.1,34.5,77.2,72.2,64.4,68.6,54.9
"COCC[n+]1c2c(n(Cc3cnccn3)c1C)C(=O)c1ccccc1C2=O + c1cc(-c2cnn3cc(-c4ccc(OCCN5CCCCC5)cc4)cnc23)ccn1 [Dorsomorphin] (first compound 0.002 µM, partner dose 2 µM)",43.9,33.9,53.5,16.1,97.8,78.2,16.2,41.6,38.3,116,27.3,18.1,65.5,46.7,25.6,51.9,48,60.2,48.3,43.2
"O=C(CCCCCCC(=O)Nc1ccccc1)NO [vorinostat] + CC1(C)NC(=O)N(c2ccc([N+](=O)[O-])c(C(F)(F)F)c2)C1=O [nilutamide] (first compound 0.4 µM, partner dose 5 µM)",68.7,104,104,76.7,101,97.7,104,97.5,103,90.4,80.4,92.1,106,59,62.7,75.9,85.7,93.2,101,84.6
